Measured values reported in patent US20240182561A1 (Regeneron, published 2024).

Assays:
[1] = target: T1, human CACNG1 expressed on cells (human, UniProt Q06432 1-222); assay: cell-based or functional assay
[2] = target: T1, human CACNG1 expressed on cells; assay: cell-based or functional assay; remark: listed apart in the source
T1 sequence (Q06432 whole entry): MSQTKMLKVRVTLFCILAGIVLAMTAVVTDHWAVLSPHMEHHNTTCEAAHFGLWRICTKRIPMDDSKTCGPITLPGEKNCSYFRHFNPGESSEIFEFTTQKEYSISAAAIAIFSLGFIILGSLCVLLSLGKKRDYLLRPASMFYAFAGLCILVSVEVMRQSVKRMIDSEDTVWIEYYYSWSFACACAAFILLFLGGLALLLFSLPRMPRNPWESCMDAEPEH

EC50 of androgen receptor luciferase reporter activation (RLU) by the DHT conjugate REGN14574-M3004 in hCACNG1.AR.Luc LNCaP cells, 24 hours; concentration adjusted for DAR [1]: 12.8 nM
EC50 of androgen receptor luciferase reporter activation (RLU) by the DHT conjugate REGN14574-M3004 in hCACNG1.AR.Luc LNCaP cells, 72 hours; concentration adjusted for DAR [2]: 13.2 nM
B1: REGN14574-M3004 (antibody, human IgG1, kappa)
heavy chain: QVQLVESGGGVVQPGTSLRLSCAASGFTFSSYGMHWVRQAPGKGLEWVAVIWIDGSNKYYADSVKGRFTISRDNSKNTLYLQMNSLRAEDTAVYYCARRGGIVVAAPFDYWGQGTLVTVSS[human IgG1 constant region with changes omitted here]
light chain: [about 100 residues omitted here][about 120 residues omitted here]
modifications: N297Q; DHT linker-payload M3004 conjugated, DAR about 4
